Laboratory results: paper PMC4336329 (PLoS ONE, 2015)
The whole screen tested about 310,000 compounds, of which about 14,000 (4.5%) showed an effect of 50% or more. The effect is printed as a negative number. The list shows a part of the results.

The compounds below were run against human ether-à-go-go-related gene (hERG) potassium channel (human, UniProt Q12809) (assay: primary screen, population patch clamp on CHO cells stably expressing hERG).
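Further: peak tail current of the secondary pulse compared with the same well before compound.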

Sequence of human ether-à-go-go-related gene (hERG) potassium channel (Q12809 whole entry, looked up): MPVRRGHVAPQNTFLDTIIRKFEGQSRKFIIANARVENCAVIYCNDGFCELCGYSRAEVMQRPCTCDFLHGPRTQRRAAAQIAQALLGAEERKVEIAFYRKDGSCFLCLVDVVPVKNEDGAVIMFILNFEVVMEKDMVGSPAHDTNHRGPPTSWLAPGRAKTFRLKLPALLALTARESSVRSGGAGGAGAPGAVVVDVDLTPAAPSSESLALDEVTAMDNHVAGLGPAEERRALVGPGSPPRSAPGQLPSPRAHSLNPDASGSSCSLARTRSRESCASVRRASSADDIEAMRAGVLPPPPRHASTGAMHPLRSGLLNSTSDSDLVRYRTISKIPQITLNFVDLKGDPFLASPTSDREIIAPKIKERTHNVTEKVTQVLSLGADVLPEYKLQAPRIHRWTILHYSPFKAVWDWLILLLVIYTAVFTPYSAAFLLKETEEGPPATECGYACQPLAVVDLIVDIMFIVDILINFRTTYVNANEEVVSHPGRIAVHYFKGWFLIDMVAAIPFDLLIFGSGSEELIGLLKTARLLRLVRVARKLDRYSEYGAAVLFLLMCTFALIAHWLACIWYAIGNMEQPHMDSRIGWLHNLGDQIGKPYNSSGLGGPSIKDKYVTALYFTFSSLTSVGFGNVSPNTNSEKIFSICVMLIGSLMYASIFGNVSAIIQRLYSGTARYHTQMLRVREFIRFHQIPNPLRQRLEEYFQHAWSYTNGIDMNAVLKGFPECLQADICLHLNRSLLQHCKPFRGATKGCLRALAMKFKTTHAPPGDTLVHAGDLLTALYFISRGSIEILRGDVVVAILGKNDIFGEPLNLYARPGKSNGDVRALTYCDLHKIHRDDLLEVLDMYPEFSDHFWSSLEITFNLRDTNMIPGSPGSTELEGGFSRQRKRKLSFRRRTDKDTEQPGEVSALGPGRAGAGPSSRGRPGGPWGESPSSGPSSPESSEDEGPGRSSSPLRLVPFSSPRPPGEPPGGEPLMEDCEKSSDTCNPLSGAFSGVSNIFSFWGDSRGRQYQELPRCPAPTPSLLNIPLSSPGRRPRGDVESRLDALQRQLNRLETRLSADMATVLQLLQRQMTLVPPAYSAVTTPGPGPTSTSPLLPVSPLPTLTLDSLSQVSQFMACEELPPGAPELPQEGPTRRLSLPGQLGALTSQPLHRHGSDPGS

Structure (SMILES)	hERG current change (%, negative = inhibition) at 10uM
CC(C)(C)c1csc(Sc2ccc([N+](=O)[O-])cn2)n1	2.06%
COC(=O)c1ccc(C(=O)OC)c(NC(=S)N2CCN(C(=O)C3CCCO3)CC2)c1 (stereo not drawn)	1.43%
COc1ccc2c([N+](=O)[O-])c(N3CCCC3)[nH]c2c1	6.27%
COc1ccc(OCc2nc3ccc(S(=O)(=O)Nc4ccccc4Cl)cc3[nH]2)cc1	-22.7%
CC(NC(=O)c1cc(S(=O)(=O)N(C)C)ccc1Cl)C1CC2CCC1C2 (stereo not drawn)	2.2%
Cn1nnnc1SCC1=C(C(=O)O)N2C(=O)C(NC(=O)Cn3nc(C(F)F)cc3C3CC3)C2SC1 (stereo not drawn)	17.3%
O=C(O)CCCn1ccc2cc(S(=O)(=O)N3CCCC3)ccc21	25.6%
COc1ccc(NC(=O)Cc2ccc(Cl)cc2)cc1S(=O)(=O)N1CCCCC1	-17.3%
Cc1cc(C)n(CC(O)COc2ccc3ccccc3c2)n1 (stereo not drawn)	17.1%
Cc1ccc(Oc2ccc(-c3nc(N)nc(N)n3)cc2)cc1C	-4.61%
CC[C@@]12C(=O)N(c3ccc(OC)cc3)C(=O)N1[C@H](c1cccc(C)c1)[C@@H]1C(=O)N(Cc3ccccc3)C(=O)[C@@H]12	-5.04%
Brc1ccc(-c2noc3c2-c2nc(C4CCCCC4)sc2CC3)cc1	15.7%
NC(=O)c1c(NC(=O)CCCC(=O)O)sc2c1CCCCCC2	8.98%
Cc1cccc[n+]1CC(=O)c1ccc(Cl)cc1.[Cl-]	8.08%
OCCCNc1nc(-c2ccccc2)c2cc(Cl)ccc2n1	3.04%
Cc1ccc(SC(C)C(=O)Nc2ccncc2)cc1 (stereo not drawn)	-6.85%
COc1cc(OC)c(NC(=O)CCNC(=O)Cn2cnc3ccccc3c2=O)cc1Cl	-0.133%
Cc1cc(C)nc(S/C=C/C(=O)c2ccc(F)cc2)n1	11.2%
CCn1c(-c2csc3c2CCC(C)C3)n[nH]c1=S (stereo not drawn)	1.2%
CC(NC(=O)CN1CCN(CC(=O)Nc2ccccc2Cl)CC1)c1ccc(Br)cc1 (stereo not drawn)	-75.1%
O=C(CNCCc1ccccc1)Nc1ccc(C(=O)N2CCCCC2)cc1.O=C(O)C(=O)O	5.77%
O=C(CSc1ccc2nnc(-c3ccc(F)cc3)n2n1)N1CCOCC1	-18.6%
O=C(NCCCN1CCOCC1)c1sc2cc(Cl)ccc2c1Cl	-69.6%
O=C(Nc1ccc(Cl)c(Cl)c1)c1csc(-c2ccccc2)n1	6.39%
